28 molecules from the antibiotic and cytotoxicity screens of Wong et al. (2023) can be followed below.

The test system of test [1] is HSkMC (human skeletal muscle cells). Nature of the test: cytotoxicity call (relative viability < 0.9). As to conditions: 10 µM.
Test [2] relates to HepG2. Description: cytotoxicity call (relative viability < 0.9). Particulars: 10 µM.
Test [3] deals with S. aureus RN4220. Nature of the test: growth inhibition call (relative growth <= 0.2). Particulars: 50 µM.

The structures appear in SMILES notation. Some of the results follow.

For `C[C@H]1CN([C@@H](C)CO)C(=O)c2cccc(NC(=O)c3ccncc3)c2O[C@@H]1CN(C)Cc1ccc(C(=O)O)cc1`, the cytotoxicity call in test [1] and in test [2] was “inactive” each time. In addition, in test [3], the growth inhibition call is “inactive”.

In the case of `CO[C@H]1O[C@H](CO)[C@@H](OC(=O)Nc2ccc(Oc3ccccc3)cc2)[C@H](OC(=O)Nc2ccccc2-c2ccccc2)[C@@H]1OC(=O)Nc1ccccc1-c1ccccc1`, the cytotoxicity call in test [1] and in test [2] was “inactive” in each case. Moreover, the growth inhibition call in test [3] was “inactive”.

Consider `COCCc1nnc(CCOC)n1N`, for which the cytotoxicity call in test [1] and in test [2] was “inactive” in each case. For the same molecule, in test [3], the growth inhibition call was “inactive”.

Consider `CN1CCN(C(=O)C[C@@H]2C=C[C@H](NC(=O)c3ccc4c(c3)OCO4)[C@@H](CO)O2)CC1`, for which the cytotoxicity call in test [1] and in test [2] was “inactive” each time. Further, in test [3], the growth inhibition call was “inactive”.

For the molecule `O=C(O)C=Cc1ccc(Cn2ccnc2)cc1`, the cytotoxicity call in test [1] was “inactive”. Besides, the cytotoxicity call in test [2] was “active”. Further, in test [3], the growth inhibition call is “inactive”.

As to `CNC(=NCc1ccc(OC)cc1)NC`, the cytotoxicity call in test [1] and in test [2] was “inactive” throughout. Besides, the growth inhibition call in test [3] was “inactive”.

With `Cc1noc(C)c1S(=O)(=O)N(C)C[C@H]1Oc2ccc(NC(=O)NC3CCCCC3)cc2CC(=O)N([C@H](C)CO)C[C@H]1C`, the cytotoxicity call in test [1] and in test [2] was “inactive” each time. The growth inhibition call in test [3] is “inactive”.

For `Cc1ccc(S(=O)(=O)Nc2ccc3c(c2)C(=O)N([C@@H](C)CO)C[C@@H](C)[C@H](CN(C)Cc2ccccc2)OCCCC[C@H](C)O3)cc1`, the cytotoxicity call in test [1] and in test [2] was “inactive” each time. Moreover, in test [3], the growth inhibition call was “inactive”.

For the molecule `COc1ccc(S(=O)(=O)Nc2ccc3c(c2)CC(=O)N([C@H](C)CO)C[C@H](C)[C@@H](CN(C)C(=O)Nc2c(C)noc2C)O3)cc1`, the cytotoxicity call in test [1] and in test [2] was “inactive” throughout. Also, in test [3], the growth inhibition call is “inactive”.

Take `C[C@H](CO)N1C[C@H](C)[C@@H](CN(C)Cc2ccc(Cl)c(Cl)c2)OCCCC[C@H](C)Oc2ccc(NC(=O)Nc3ccc4c(c3)OCO4)cc2C1=O`: in test [1], the cytotoxicity call was “active”. Moreover, the cytotoxicity call in test [2] is “inactive”. In addition, the growth inhibition call in test [3] was “inactive”.

As to `CC(=O)Nc1ccc(CN(C)c2c(C)nc3ccc(C(=O)N4CCN(C(=O)c5ccco5)CC4)cn23)cc1`, the cytotoxicity call in test [1] and in test [2] was “inactive” in each case. Also, the growth inhibition call in test [3] is “inactive”.

Consider `O=C(C[C@H]1CC[C@@H](NC(=O)Cc2ccccn2)[C@H](CO)O1)NCCCN1CCOCC1`, for which the cytotoxicity call in test [1] and in test [2] was “inactive” throughout. Further, the growth inhibition call in test [3] is “inactive”.

On to `COc1ccc(S(=O)(=O)N(C)C[C@H]2Oc3c(NC(=O)c4ccncc4)cccc3C(=O)N([C@H](C)CO)C[C@@H]2C)cc1`, for which the cytotoxicity call in test [1] and in test [2] was “inactive” throughout. The growth inhibition call in test [3] was “inactive”.

Consider `C[C@H](CO)N1C[C@H](C)[C@@H](CN(C)CC2CC2)Oc2ccc(NS(=O)(=O)c3ccccc3)cc2C1=O`, for which the cytotoxicity call in test [1] and in test [2] was “inactive” in each case. Besides, the growth inhibition call in test [3] was “inactive”.

Take `CC(C)CC#Cc1ccc2c(c1)O[C@H](CN(C)Cc1cncnc1)[C@H](C)CN([C@H](C)CO)S2(=O)=O`: the cytotoxicity call in test [1] and in test [2] was “inactive” each time. The growth inhibition call in test [3] is “inactive”.

In the case of `Cc1ccc(S(=O)(=O)Nc2ccc3c(c2)C(=O)N([C@H](C)CO)C[C@H](C)[C@@H](CN(C)Cc2ccc(-c4ccccc4)cc2)O3)cc1`, the cytotoxicity call in test [1] and in test [2] was “inactive” in each case. For the same molecule, the growth inhibition call in test [3] was “inactive”.

As to `Cc1nc(=O)c(C#N)c(NCc2cccnc2)[nH]1`, the cytotoxicity call in test [1] and in test [2] was “inactive” throughout. Also, the growth inhibition call in test [3] was “inactive”.

As to `C[C@@H]1CCCCO[C@@H](CN(C)Cc2ccc3c(c2)OCO3)[C@H](C)CN([C@@H](C)CO)C(=O)c2cc(NS(=O)(=O)c3ccc(F)cc3)ccc2O1`, the cytotoxicity call in test [1] and in test [2] was “inactive” in each case. Besides, the growth inhibition call in test [3] is “inactive”.

As to `COCC(=O)Nc1ccc2c(c1)[C@H]1C[C@H](CC(=O)N3CCOCC3)O[C@@H](CO)[C@H]1O2`, the cytotoxicity call in test [1] and in test [2] was “inactive” each time. Besides, the growth inhibition call in test [3] is “inactive”.

With `O=C(C[C@@H]1C=C[C@@H](NC(=O)c2ccncc2)[C@H](CO)O1)NCc1ccncn1`, the cytotoxicity call in test [1] and in test [2] was “inactive” in each case. Moreover, the growth inhibition call in test [3] is “inactive”.

For the molecule `C[C@H](CO)N1C[C@H](C)[C@H](CN(C)S(=O)(=O)c2cn(C)cn2)Oc2ccc(NC(=O)CCCCCC(=O)Nc3ccccc3N)cc2CC1=O`, the cytotoxicity call in test [1] and in test [2] was “inactive” in each case. Besides, the growth inhibition call in test [3] was “inactive”.

For the molecule `CCCN1C(C)=C(C(=O)OC)[C@@H](c2cccc([N+](=O)[O-])c2)C(C(=O)ON2CCC(c3ccccc3)(c3ccccc3)CC2)=C1C`, the cytotoxicity call in test [1] and in test [2] was “active” in each case. In addition, in test [3], the growth inhibition call is “inactive”.

On to `Cc1noc(C)c1NC(=O)Nc1ccc2c(c1)C(=O)N([C@@H](C)CO)C[C@H](C)[C@@H](CN(C)C(=O)Nc1cccc3ccccc13)O2`, for which the cytotoxicity call in test [1] and in test [2] was “inactive” throughout. The growth inhibition call in test [3] is “inactive”.

`C[C@H](CO)N1C[C@H](C)[C@H](CN(C)Cc2ccc(C(F)(F)F)cc2)Oc2c(NC(=O)Nc3ccc(F)cc3)cccc2C1=O`: the cytotoxicity call in test [1] and in test [2] was “inactive” throughout. The growth inhibition call in test [3] was “inactive”.

For `CNC(=O)CN1CCO[C@@H]2CN(Cc3nccs3)C[C@@H]21`, the cytotoxicity call in test [1] and in test [2] was “inactive” in each case. Also, the growth inhibition call in test [3] is “inactive”.

On to `COc1cccc(-c2ccc3c(c2)O[C@@H](CN(C)C(=O)C2CCOCC2)[C@@H](C)CN([C@H](C)CO)S3(=O)=O)c1`, for which the cytotoxicity call in test [1] and in test [2] was “inactive” in each case. In addition, the growth inhibition call in test [3] is “inactive”.

Consider `CCCN(C)C[C@@H]1OCCCC[C@H](C)Oc2ccc(NC(=O)Nc3ccc(F)cc3)cc2C(=O)N([C@@H](C)CO)C[C@@H]1C`, for which the cytotoxicity call in test [1] and in test [2] was “inactive” throughout. In addition, the growth inhibition call in test [3] was “inactive”.

With `COc1ccc(S(=O)(=O)N(C)C[C@H]2Oc3ccc(NC(=O)Nc4c(C)noc4C)cc3CC(=O)N([C@H](C)CO)C[C@@H]2C)cc1`, the cytotoxicity call in test [1] and in test [2] was “inactive” each time. Also, the growth inhibition call in test [3] is “inactive”.
